What all share (experiment): Primary Screen for Target Class Profiling of Small Molecule Inhibitors of Methyltransferases
Assay [1] addresses Glycine N-methyltransferase (Homo sapiens) (UniProt Q14749). To be noted: purified enzyme, MTase-Glo SAH luminescence; measured here: GNMT inhibition; at 40 µM; stronger effect = lower value. A digest of the protocol:
(§1)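 Each enzyme was reacted with SAM and its substrate, with compounds tested once at 40 uM; SAH formed was read by MTase-Glo luminescence.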

Assay [2] concerns the target Guanidinoacetate N-methyltransferase (Homo sapiens) (UniProt Q14353). To be noted: purified enzyme, MTase-Glo SAH luminescence; measured here: GAMT inhibition; at 40 µM; stronger effect = lower value. A digest of the protocol: as §1
Assay [3] deals with Histamine N-methyltransferase (Homo sapiens) (UniProt P50135). To be noted: purified enzyme, MTase-Glo SAH luminescence; measured here: HNMT inhibition; at 40 µM; stronger effect = lower value. In a few lines:
as §1

Assay [4] deals with Nicotinamide N-methyltransferase (Homo sapiens) (UniProt P40261). To be noted: purified enzyme, MTase-Glo SAH luminescence; measured here: NNMT inhibition; at 40 µM; stronger effect = lower value. A digest of the protocol:
as §1

Assay [5] has as its target Phenylethanolamine N-methyltransferase (Homo sapiens) (UniProt P11086). To be noted: purified enzyme, MTase-Glo SAH luminescence; measured here: PNMT inhibition; at 40 µM; stronger effect = lower value. In a few lines: as §1

Several values for one entry are separate records, joined by “and”; a condition that tells them apart may be missing. Equal entries are not always repeated. The list shows a part of the results. Further columns of the screen follow, without active or inactive calls. Peptide text beside a SMILES is read from it.

The record followed here is PubChem BioAssay AID1745853 (National Center for Advancing Translational Sciences (NCATS), 2022).
On the % scale 0 is the no-effect control and ±100 the full control effect.

Take `CC1(C(=O)NC2CCCC2)Cn2c(ccc2-c2ccccc2)C(=O)N1Cc1ccco1` (stereo not given): the activity change, negative = inhibition in assay [1] is 0.378%; in assay [2], 4.56%; in assay [3], 4.64%; in assay [4] it was -0.927%; in assay [5], -0.202%.
The like results for `O=C(CCCc1nnc2n3nc(-c4ccccc4)nc3c3ccccc3n12)NCc1ccccc1Cl` were, in that order, -3.29%, 3.58%, 10.1%, 12.8% and 0.784%.
For the molecule `CC1CCC(NC(=O)CCn2ccc3cc(S(=O)(=O)N4CCC(C)CC4)ccc32)CC1` (stereo not given), the activity change, negative = inhibition is 2.35% in assay [1]; 5.3% in assay [2]; -1.92% in assay [3]; -6.96% in assay [4]; -3.05% in assay [5].
Regarding `CCCn1c(=O)c2ccc(C(=O)NC(C)CC)cc2n2c(=O)n(CC(=O)c3cccc(Cl)c3)nc12` (stereo not given), the activity change, negative = inhibition in assay [1] amounted to 5.29%; in assay [2], 0.624%; in assay [3], 10.3%; in assay [4] it was 3.67%; in assay [5] it was 7.68%.
The corresponding values for `CCn1c(=O)n(CC)c2cc(S(=O)(=O)Nc3ccc(F)c(F)c3)ccc21` are 11.1%, 1.9%, 11.9%, -1.67% and 5.31%.
`CC1(C(=O)NC2CCCC2)Cn2c(ccc2-c2ccccc2)C(=O)N1Cc1cccc(F)c1` (stereo not given): the activity change, negative = inhibition was 0.94% in assay [1]; 4.76% in assay [2]; -1.65% in assay [3]; 1.16% in assay [4]; 1.76% in assay [5].
Turning to `C[C@@H]1O[C@@H](O[C@H]2[C@@H]3C=CO[C@@H](O[C@@H]4O[C@H](CO)[C@@H](O)[C@H](O)[C@H]4O)[C@@H]3[C@@]3(CO)O[C@@H]23)[C@H](O)[C@H](OC(=O)/C=C/c2ccc(O)c(O)c2)[C@H]1O`, the activity change, negative = inhibition in assay [1] was 3.51%; in assay [2] it was -4.23%; in assay [3], 3.19%; in assay [4], -13.7%; in assay [5], 1.84%.
The like results for `COc1cccc(CC(=O)N[C@@H]2CN(c3ncccn3)C[C@H]2CO)c1` were, in that order, -4.13%, -6.31%, -4.02%, -8.75% and -9.16%.
The corresponding values for `Cc1ccc(C(=O)Nc2ccc(CN3CCN(C)CC3)c(C(F)(F)F)c2)cc1C#Cc1cnc2[nH]ncc2c1` are -6.4%, 10.3%, -12.5%, -7.23% and -6.91%.
The corresponding values for `CCCC1c2cccn2CCN1C(=O)Nc1ccc(OC)cc1` (stereo not given) are -7.37%, 5.54%, -31%, -8.45% and -1.42%.
With `CS(=O)(=O)N1C[C@H]2CCN(C(=O)c3cc(F)ccc3F)C[C@H]21`, the activity change, negative = inhibition is -2.96% in assay [1]; -2.83% in assay [2]; -0.247% in assay [3]; -4.05% in assay [4]; -2.94% in assay [5].
The corresponding values for `COc1cc(CNCc2ccccc2C)ccc1OCC(O)CN1CCC(O)CC1` (stereo not given) are -2.48%, 1.03%, -15.8%, -3.12% and 2.75%.
The corresponding values for `COc1ccccc1N1C(=O)c2cc3ccccc3n2CC1(C)C(=O)NC1CCCCC1` (stereo not given) are -2.11%, 0%, 7.64%, 9.69% and 2.77%.
`Oc1ccc(-c2nc(-c3ccc(F)cc3)c(-c3ccncc3)[nH]2)cc1`: the activity change, negative = inhibition in assay [1] was -19.9% and -23.1%; in assay [2] it was -0.29%; in assay [3], -12.3% and -4.57%; in assay [4] it was -21.9% and -7.78%; in assay [5] it was -13% and 25.7%.
In the case of `CN(C)C[C@@H]1CN(C2CCOCC2)C[C@H]1NC(=O)Cc1ccccc1Cl`, the activity change, negative = inhibition in assay [1] was -7.22%; in assay [2] it was -7.34%; in assay [3], -6.11%; in assay [4], -17%; in assay [5] it was -12.6%.
The like results for `CC1CCC(NC(=O)C2(C)Cn3c(ccc3-c3ccco3)C(=O)N2CCCc2ccccc2)CC1` (stereo not given) were, in that order, -13.4%, 3.28%, -2.68%, -9.48% and -3.29%.
The like results for `O=C(O)C(Cc1ccccc1)NC(=O)C1CCCN1` (stereo not drawn) (H-Pro-Phe-OH; configuration not given here) were, in that order, 0.024%, 0.41%, 7.92%, -13% and -6.12%.
Regarding `O=C(Nc1ccc(S(=O)(=O)Nc2ccccc2Cl)c(Cl)c1)c1ccccn1`, the activity change, negative = inhibition in assay [1] was -6.36%; in assay [2], -13.8%; in assay [3], -3.31%; in assay [4], -28%; in assay [5], -13.8%.
As to `O=C(NC[C@H]1O[C@@H](CC(=O)N2CCN(c3ccccn3)CC2)[C@H](O)[C@@H]1O)c1ccco1`, the activity change, negative = inhibition in assay [1] is -2.8%; in assay [2], -1.27%; in assay [3], -1.01%; in assay [4], -7.65%; in assay [5] it was -4.42%.
Take `C[C@@H]([C@@H](O)c1ccc(O)cc1)N1CCC(O)(c2ccccc2)CC1`: the activity change, negative = inhibition in assay [1] was -5.15%; in assay [2] it was -12.3%; in assay [3], 1.76%; in assay [4] it was -24.4%; in assay [5] it was -2.91%.
The like results for `O=C(N[C@H](C1CCNCC1)C1CC(O)C1)c1ccc2nccnc2c1` (stereo not given in full) were, in that order, -6.63%, -2.96%, -56%, -3.27% and -15.3%.
The like results for `Cn1cc(-c2nc(N3CCOCC3)cc3c2CN(CC2CC2)C3=O)cn1` were, in that order, -11.7%, -9.63%, -10.1%, -21.9% and -10.3%.
The like results for `CC1(C(=O)NCc2ccc(F)cc2)Cn2cnc(C(=O)NCc3ccccc3F)c2C(=O)N1C1CC1` (stereo not given) were, in that order, -6.71%, 3.15%, -3.56%, -5.67% and -2.44%.
For the molecule `CC[C@H](C)/C=C(C)/C=C/C1=CC2=C(Cl)C(=O)[C@](C)(O)[C@H](OC(C)=O)[C@H]2CO1`, the activity change, negative = inhibition in assay [1] was -1.89%; in assay [2], 3.32%; in assay [3] it was 6.33%; in assay [4], -12.6%; in assay [5], -1.58%.
Turning to `CC(C)CNC(=O)c1ccc2c(=O)n(CC(C)C)c3nn(Cc4ccc(F)cc4)c(=O)n3c2c1`, the activity change, negative = inhibition in assay [1] stood at 7.47%; in assay [2] it was 0.005%; in assay [3] it was 7.69%; in assay [4], 4.93%; in assay [5], 6.18%.
The like results for `CC1CCN(S(=O)(=O)c2ccc3c(ccn3CCC(=O)NC3CCCCC3)c2)CC1` were, in that order, -0.063%, -0.732%, 1.37%, -8.73% and -4.84%.
Consider `CCc1cc2c(cc3n2CC(C)(C(=O)NC2CCCCC2)N(CC(C)c2ccccc2)C3=O)s1` (stereo not given), for which the activity change, negative = inhibition is -1.85% in assay [1]; 2.81% in assay [2]; -3.35% in assay [3]; 3.12% in assay [4]; -2.77% in assay [5].
The like results for `CCN(C1CCOCC1)C1CN(C(=O)C2CCCCC2)C1` were, in that order, -3.88%, -4.04%, -3.17%, -9.3% and 9.61%.
As for `CNC(=O)c1cccc(-c2cnc3[nH]cc(CC(=O)Nc4ccccc4Cl)c3c2)c1`, the activity change, negative = inhibition in assay [1] is -47.1%; in assay [2], -17.4%; in assay [3], -20.2%; in assay [4] it was -45.6%; in assay [5], -20.5%.
